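Test compounds were applied to cells in 96-well plates for 48 hours at 5 doses. GI50 = concentration required for 50% inhibition of growth.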 Activity calls are given as the source filed them. No stated cut-off is given here; in the data, active = GI50 up to about 1.1 µM and inactive = higher.

This assay deals with NCI-H322M. Kind of assay: NCI tumour cell line growth inhibition, 48 h.
Consider `Sc1nnc(COc2ccc(Cl)cc2)o1`, for which the GI50 is inactive: > 100 µM.
As to `CC(C)(C)c1ccc(OCCOc2ccc(C(C)(C)C)cc2NC=O)c(NC=O)c1`, the GI50 is inactive: 19.5 µM.
In the case of `COc1ccc(CC2C(=O)NC(C)C(=O)N(C)C3Cc4ccc(cc4)Oc4cc(ccc4O)CC(C(=O)NC(C)C(=O)NC(C)C(=O)N2C)N(C)C3=O)cc1` (stereo not drawn) it was active: 0.0175 µM.
To `CC1(CCOCc2ccccc2)NC(=O)NC1=O` (stereo not drawn) belongs inactive: > 100 µM; to `CCOC(=O)C(=O)Nc1c(CC)cccc1C(C)CC` (stereo not drawn), inactive: > 100 µM; to `N#Cc1c(NCCc2ccc(F)cc2)c2ccccc2n2c1nc1ccccc12`, inactive: 29.1 µM.
For `CC(=O)Nc1ccc(C2=N/C(=C\c3ccc(Cl)c(Cl)c3)C(=O)O2)cc1`, the GI50 is inactive: > 100 µM.
To `O=C1Nc2c(Cl)cccc2/C1=N/Nc1ccccc1[N+](=O)[O-]` belongs inactive: 30.8 µM.
As for `C[C@@]12C[C@@H](c3ccccc3O1)N1CCCSC1=N2`, the GI50 is inactive: > 100 µM.
To `COc1cc(/C=N/N=C2NCCCN2)ccc1O` belongs inactive: > 100 µM.
In the case of `Cc1ccsc1/C=N/Nc1cc(C)c2cccc(C)c2n1` it was inactive: > 100 µM; in that of `C=CC[C@H]1[C@H](O[Si](C)(C)C(C)(C)C)C=CC(=O)[C@@H]1CC(=O)N(Cc1ccccc1)Cc1ccccc1`, inactive: 34 µM; in that of `Cn1ccnc1C(c1nccn1C)C(C)(C)[N+](=O)[O-]`, inactive: > 100 µM.
In the case of `CC(=O)NC1(NC(C)=O)C2CC(C1Cc1ccccc1)C(C)(C)C2C` (stereo not drawn) it was inactive: > 100 µM.
Regarding `CCCC1C2=C(C(=O)OC2=O)C2C(CC)CC3=C(C(=O)OC3=O)C12` (stereo not drawn), the GI50 was inactive: > 100 µM.
To `Cc1cccc(C(C)(C)C)c1NC(=O)C(=O)C(C(=O)/C=C\c1ccccc1)C1OC(=O)c2ccccc21` (stereo not drawn) belongs inactive: > 100 µM; to `CCSc1nc2sc(C)c(C)c2c(=O)n1-c1ccc(C(=O)O)cc1`, inactive: 96.6 µM; to `O=C1OCC/C1=N/O`, inactive: > 100 µM.
As to `N#CCCN(CCCN(C(=O)Nc1ccc(NC(=O)N(CCCN(CCC#N)C(N)=O)c2ccccc2)cc1)c1ccccc1)C(N)=O`, the GI50 is inactive: > 100 µM.
For `COc1ccc(/C=N/NC(=O)O)cc1`, the GI50 is inactive: > 100 µM.
To `N#C/C(=C/NC(N)=S)C(N)=O` belongs inactive: > 100 µM; to `Cc1ccc(N2C(=O)/C(=C/c3ccc(N(CCC#N)CCC#N)cc3)N=C2COc2ccc(Cl)cc2Cl)cc1`, inactive: > 100 µM; to `CCN(CC)CCN1C=CC(C)C(C(=O)O)C1C(N)=O` (stereo not drawn), inactive: > 100 µM.
In the case of `COc1ccc(OC)c2c1CC(C(=O)O)(C(=O)O)CC2=O` it was inactive: > 100 µM; in that of `CSC1=NN(C(C)=O)C(C(OC(C)=O)C(OC(C)=O)C(OC(C)=O)C(COC(C)=O)OC(C)=O)S1` (stereo not drawn), inactive: > 100 µM.
In the case of `COc1ccccc1/N=N/c1c(-c2ccccc2)nn(C(=O)CC(=O)Nc2ccccc2Cl)c1-c1ccccc1` it was inactive: > 100 µM; in that of `Oc1ccc2ccccc2c1C(c1ccc(Cl)cc1)c1c(O)ccc2ccccc12`, inactive: 2.39 µM; in that of `O=c1c2ccccc2n2nnc3ccc(NCCCNCCNCCCNc4ccc5nnn6c7ccccc7c(=O)c4c56)c1c32`, inactive: 2.42 µM.
Take `CCOC(=O)C1(C(=O)OCC)CC(=O)[C@@]2(C1)OCC[C@H]1OC(=O)C[C@H]12`: the GI50 was inactive: > 100 µM.
As for `CSc1nc(Br)nc2ncn(C3CC(Oc4ccc(C)cc4)C(COc4ccc(C)cc4)O3)c12` (stereo not drawn), the GI50 is inactive: > 100 µM.
To `CN(C)/C=N/c1c2c(nc3ccccc13)CCCC2` belongs inactive: > 100 µM; to `O=C(Cc1nc2ccc(C(=O)c3ccccc3)cc2nc1O)C(=O)Nc1ccccc1[N+](=O)[O-]`, inactive: > 100 µM.
In the case of `CSC1NNC2(C(=O)N1)c1ccccc1-c1ccccc12` (stereo not drawn) it was inactive: > 10 µM.
To `CC(=O)OCCOCn1c2c(c(=O)[nH]c1=O)CCC2` belongs inactive: > 100 µM; to `CCC(C)C1NC(=O)CNC(=O)C2Cc3c([nH]c4cc(O)ccc34)[S+]([O-])CC(NC(=O)CNC1=O)C(=O)NC(CC(=O)O)C(=O)N1CC(O)CC1C(=O)NC(C(C)C(O)CO)C(=O)N2` (stereo not drawn), inactive: 5.16 µM.
`CC(C)(CN1CCOCC1)C(=O)/C=C/c1ccc(/C=C/C(=O)C(C)(C)CN2CCOCC2)cc1`: the GI50 was inactive: 1.44 µM.
In the case of `Fc1cccc(C2SCc3nc4ccccc4n32)c1` (stereo not drawn) it was inactive: > 100 µM; in that of `C=CC1=C(C)c2cc3[nH]c(c4c5nc(cc6[nH]c(cc1n2)c(C)c6CC)C=C5C(=O)C4C(=O)OC)C(CCC(=O)OC/C=C(\C)CCCC(C)CCCC(C)CCCC(C)C)C3C.C=CC1=C(C)c2cc3[nH]c(c4c5nc(cc6[nH]c(cc1n2)c(C=O)c6CC)C=C5C(=O)C4C(=O)OC)C(CCC(=O)OC/C=C(\C)CCCC(C)CCCC(C)CCCC(C)C)C3C` (stereo not drawn), inactive: > 100 µM; in that of `C=C1c2[nH]c3ccccc3c2C2C(CC)C1CCN2C` (stereo not drawn), inactive: 67 µM.
In the case of `CC(=O)c1ccc2c(ccc(=O)n2C)c1` it was inactive: > 100 µM; in that of `COc1cc2c(cc1OC)C1(COc3cc(O)c(O)c(O)c3C1=O)C2` (stereo not drawn), inactive: > 50 µM; in that of `COc1ccc(/C(=N/OCCCC(=O)O)c2cccs2)cc1`, inactive: > 100 µM.
For the compound `Cn1c2c(c3ccccc31)CC(=S)N1CCCC(CC2O)C1` (stereo not drawn), the GI50 was inactive: > 100 µM.
Regarding `CC1(C)[N+]([O-])=[N+]([O-])C1(Br)c1ccccc1` (stereo not drawn), the GI50 was inactive: > 100 µM.
To `Cc1ccc2c(c1CCCC(C)(C)O)C(=O)C(O)=C(C(C)C)C2=O` belongs inactive: 65.3 µM; to `O=C(O)CCSC(=O)Nc1ccccc1F`, inactive: > 100 µM; to `CCOC(=O)/C(C#N)=C\Sc1ccccc1`, inactive: 23.8 µM.
In the case of `Clc1ccc(Nc2nn3c(CCCCCCCCc4nnc5sc(Nc6ccc(Cl)cc6)nn45)nnc3s2)cc1` it was inactive: > 100 µM.
In the case of `N#Cc1c(-c2ccc(Cl)cc2)[nH]c(=O)n(C2OC(CO)C(O)C(O)C2O)c1=O` (stereo not drawn) it was inactive: > 100 µM.
`C#C[C@H](CCCC)OC(=O)N[C@H](C)c1ccccc1`: the GI50 was inactive: 61.9 µM.
Take `O=C(CCN1CCCC1)c1ccc(Oc2ccc(F)cc2)cc1`: the GI50 is inactive: > 100 µM.
To `COc1ccc(OC)c(/C=C/c2cnnc3ccccc23)c1` belongs inactive: > 10 µM; to `C/C(=N\NC(N)=S)C(CN1CCCCC1)C(C1=C(O)c2ccccc2OC1)c1ccccc1` (stereo not drawn), inactive: > 100 µM; to `CC(=O)N1CCc2c([nH]c3ccc(Br)cc23)C1c1ccccc1` (stereo not drawn), inactive: > 10 µM.
To `CC(=O)OC1CCC2C3CCc4c(C)ccc(OS(=O)(=O)c5ccccc5)c4C3CCC12C` (stereo not drawn) belongs inactive: 22.6 µM; to `O=C(O)c1nccnc1C(=O)O`, inactive: > 100 µM.
In the case of `COC(=O)C1CC2(CC3=C1CCCC3)OCCO2` (stereo not drawn) it was inactive: > 100 µM; in that of `CCOC(=O)/C(=C\NC(N)=S)C(=O)c1ccccc1`, inactive: > 100 µM; in that of `CCOC(=O)c1ccc(-c2onc(C)c2Br)[nH]1`, inactive: > 100 µM.
As to `COc1cc(OC)c(/C=C\c2cc(/C=C/c3c(OC)cc(OC)cc3OC)c3ccccc3[n+]2C)c(OC)c1`, the GI50 was inactive: 6.38 µM.
In the case of `CN(C)C(=C1c2cc([N+](=O)[O-])ccc2-c2ccc([N+](=O)[O-])cc21)N(C)C` it was inactive: > 100 µM.
To `O=S(=O)(C1=CC(S(=O)(=O)c2ccccc2)COC1)c1ccccc1` (stereo not drawn) belongs inactive: > 100 µM; to `C=CCSC1=N/C(=C\c2ccccc2)C(=O)N1CC=C`, inactive: 69.5 µM; to `O=C(Nc1ccccc1)C(=O)C(C(=O)c1ccccc1F)C1OC(=O)c2ccccc21` (stereo not drawn), inactive: 22.3 µM.
To `O=C(/C=C/c1ccccc1)CC(=O)CCC(=O)Nc1ccc(Cl)cc1` belongs inactive: > 100 µM; to `CC1(C)C(=O)C2(N)CCC1C2` (stereo not drawn), inactive: > 100 µM; to `O=C1NC(=O)C(F)(n2cc(F)c(=O)[nH]c2=O)C(O)N1` (stereo not drawn), inactive: > 10 µM.
Turning to `CC1=Nc2c(O)nc(S)nc2NC(c2c(Cl)cccc2Cl)C1` (stereo not drawn), the GI50 was inactive: 6.43 µM.
To `CCCCCCCCCCCCCCCCCC(=O)Nc1ccn(C2OC(CO)C(O)C2O)c(=O)n1` (stereo not drawn) belongs inactive: 38.3 µM; to `C=C(C)[C@]12CC(C)C34OC(/C=C\C=C\CCCCCCCCC)(O[C@@H]1[C@@H]3[C@@H]1O[C@]1(CO)[C@@H](O)[C@]1(O)C(=O)C(C)=C[C@@H]41)O2` (stereo partly drawn), active: 0.124 µM.
For `C=CC1[C@H]2COC(C)(C)O[C@@H]2CC(=O)C1(C)C` (stereo partly drawn), the GI50 is inactive: > 100 µM.
Regarding `C[N+](C)(CCCCCC[N+](C)(C)CCCN1C(=O)c2cccc3cccc(c23)C1=O)CCCN1C(=O)c2cccc3cccc(c23)C1=O`, the GI50 was inactive: > 100 µM.
To `CC(C)(C)[C@H]1CC[C@@](O)(c2ccccc2)CC1.CC(C)(C)[C@H]1CC[C@](O)(c2ccccc2)CC1` belongs inactive: 29.2 µM.
Take `CC(=O)O[C@H]1C[C@H](O[C@H]2[C@@H](O)C[C@H](O[C@H]3[C@@H](O)C[C@H](O[C@H]4CC[C@@]5(C)[C@H](CC[C@@H]6[C@@H]5CC[C@]5(O)[C@@H](C7=CC(=O)OC7)CC[C@]65O)C4)O[C@@H]3C)O[C@@H]2C)O[C@H](C)[C@H]1O[C@@H]1O[C@H](CO)[C@@H](O)[C@H](O)[C@H]1O`: the GI50 is active: 0.354 µM.
In the case of `CCCCCCCCCCCCCCCC[N+](C)(C)Cc1ccc(C[N+](C)(C)CCCCCCCCCCCCCCCC)cc1` it was inactive: 2.94 µM; in that of `CCOC(=O)c1c2c(n3ccccc13)C(=O)c1ccccc1C2=O`, inactive: 3.02 µM; in that of `O=C1CC(c2ccc(Cl)cc2)Oc2ccccc21` (stereo not drawn), inactive: 68.9 µM.
In the case of `Cc1ccc(S(=O)(=O)NC(=O)Nc2nc(Cl)cc(Cl)n2)cc1` it was inactive: > 100 µM.

Source of the values: ChEMBL document CHEMBL1201862, “PubChem BioAssay data set” (2004).
